The other results are listed elsewhere or left out.
What was measured:
HSkMC = human skeletal muscle cells; assay: cytotoxicity call (relative viability < 0.9); settings: 10 µM
HepG2 = assay: cytotoxicity call (relative viability < 0.9); settings: 10 µM
S. aureus RN4220 = assay: growth inhibition call (relative growth <= 0.2); settings: 50 µM

Which results are given for OCc1ccccc1-n1cncn1?
cytotoxicity call (HSkMC): inactive; cytotoxicity call (HepG2): inactive; growth inhibition call (S. aureus RN4220): inactive

Which results are given for C#CCCCCCCCCCCCC(O)CC(O)COC(C)=O.C=CCCCCCCCCCCCC(O)CC(O)COC(C)=O (stereo not drawn)?
cytotoxicity call (HSkMC): inactive; cytotoxicity call (HepG2): inactive; growth inhibition call (S. aureus RN4220): inactive

What does the source list for O=C(C[C@H]1C=C[C@@H](NC(=O)Cc2ccccn2)[C@H](CO)O1)NCCCN1CCOCC1?
cytotoxicity call (HSkMC): inactive; cytotoxicity call (HepG2): inactive; growth inhibition call (S. aureus RN4220): inactive

What does the source list for C[C@H]1CCCCO[C@@H](CN(C)Cc2ccc(C(=O)O)cc2)[C@@H](C)CN([C@@H](C)CO)C(=O)c2cc(NC(=O)NC3CCCCC3)ccc2O1?
cytotoxicity call (HSkMC): inactive; cytotoxicity call (HepG2): inactive; growth inhibition call (S. aureus RN4220): inactive

What does the source list for C[C@H](CO)N1C[C@H](C)[C@@H](CN(C)Cc2ccc(C(F)(F)F)cc2)OCCCC[C@H](C)Oc2ccc(NS(C)(=O)=O)cc2C1=O?
cytotoxicity call (HSkMC): inactive; cytotoxicity call (HepG2): inactive; growth inhibition call (S. aureus RN4220): inactive

CO[C@@H]1CN(C)C(=O)c2cc(NS(C)(=O)=O)ccc2OC[C@@H](C)N(S(=O)(=O)CC(F)(F)F)C[C@H]1C was tested. Which cytotoxicity call (HSkMC) did it give?
The cytotoxicity call was “inactive”.

And the cytotoxicity call (HepG2)?
Its cytotoxicity call is “inactive”.

What about the growth inhibition call (S. aureus RN4220) of the same molecule?
Its growth inhibition call is “inactive”.

Which results are given for CC(C)NC(=O)N(C)C[C@@H]1OCCCC[C@@H](C)Oc2ccc(NC(=O)Nc3cccc4ccccc34)cc2C(=O)N([C@@H](C)CO)C[C@@H]1C?
cytotoxicity call (HSkMC): inactive; cytotoxicity call (HepG2): inactive; growth inhibition call (S. aureus RN4220): inactive

With C[C@@H]1CN([C@@H](C)CO)C(=O)c2cc(Br)cnc2O[C@H]1CN(C)S(=O)(=O)c1cccs1 as the molecule, how does the cytotoxicity call (HSkMC) read?
The cytotoxicity call was “inactive”.

And the cytotoxicity call (HepG2)?
The cytotoxicity call was “inactive”.

And the growth inhibition call (S. aureus RN4220)?
The growth inhibition call was “inactive”.

Which results are given for Cc1noc(C)c1NC(=O)N(C)C[C@H]1Oc2ccc(NS(=O)(=O)c3c(C)noc3C)cc2C(=O)N([C@@H](C)CO)C[C@H]1C?
cytotoxicity call (HSkMC): inactive; cytotoxicity call (HepG2): inactive; growth inhibition call (S. aureus RN4220): inactive

For Cc1ccc(S(=O)(=O)Nc2ccc3c(c2)C(=O)N([C@H](C)CO)C[C@@H](C)[C@H](CN(C)S(C)(=O)=O)O3)cc1, which cytotoxicity call (HSkMC) is on record?
The cytotoxicity call was “inactive”.

And the cytotoxicity call (HepG2)?
The cytotoxicity call was “inactive”.

And the growth inhibition call (S. aureus RN4220)?
The growth inhibition call was “inactive”.

For C[C@H]1CN([C@@H](C)CO)C(=O)c2cccc(NS(=O)(=O)c3cn(C)cn3)c2O[C@H]1CN(C)C(=O)Nc1ccc2c(c1)OCO2, which cytotoxicity call (HSkMC) is on record?
Its cytotoxicity call is “inactive”.

And the cytotoxicity call (HepG2)?
The cytotoxicity call was “inactive”.

What about the growth inhibition call (S. aureus RN4220) of the same molecule?
Its growth inhibition call is “inactive”.

What does the source list for C[C@@H]1CN([C@H](C)CO)C(=O)c2cc(Br)cnc2O[C@@H]1CN(C)S(=O)(=O)c1ccccc1?
cytotoxicity call (HSkMC): inactive; cytotoxicity call (HepG2): inactive; growth inhibition call (S. aureus RN4220): inactive

What does the source list for C[C@H]1CN([C@@H](C)CO)C(=O)Cc2cc(NC(=O)CCC(F)(F)F)ccc2O[C@@H]1CN(C)S(C)(=O)=O?
cytotoxicity call (HSkMC): inactive; cytotoxicity call (HepG2): inactive; growth inhibition call (S. aureus RN4220): inactive

Which results are given for C[C@H]1CN([C@@H](C)CO)C(=O)c2cccc(NC(=O)Nc3ccc(C(F)(F)F)cc3)c2O[C@H]1CN(C)S(=O)(=O)c1ccc(F)cc1?
cytotoxicity call (HSkMC): inactive; cytotoxicity call (HepG2): inactive; growth inhibition call (S. aureus RN4220): inactive

How did the cytotoxicity call (HSkMC) turn out when COc1ccccc1-c1ccc2c(c1)O[C@@H](CN(C)C(=O)c1cccnc1)[C@H](C)CN([C@H](C)CO)S2(=O)=O was run?
Its cytotoxicity call is “inactive”.

What about the cytotoxicity call (HepG2) of the same molecule?
Its cytotoxicity call is “inactive”.

What about the growth inhibition call (S. aureus RN4220) of the same molecule?
Its growth inhibition call is “inactive”.

With C[C@@H]1CN([C@H](C)CO)S(=O)(=O)c2ccc(C#CC(C)(C)O)cc2O[C@@H]1CN(C)Cc1ccc(F)cc1 as the molecule, how does the cytotoxicity call (HSkMC) read?
The cytotoxicity call was “inactive”.

What about the cytotoxicity call (HepG2) of the same molecule?
Its cytotoxicity call is “inactive”.

What about the growth inhibition call (S. aureus RN4220) of the same molecule?
Its growth inhibition call is “inactive”.

With C[C@H](CO)N1C[C@H](C)[C@H](CN(C)C(=O)Nc2ccccc2)Oc2ccc(NC(=O)Cn3cnnn3)cc2CC1=O as the molecule, how does the cytotoxicity call (HSkMC) read?
The cytotoxicity call was “inactive”.

And the cytotoxicity call (HepG2)?
Its cytotoxicity call is “inactive”.

And the growth inhibition call (S. aureus RN4220)?
Its growth inhibition call is “inactive”.

Which cytotoxicity call (HSkMC) does the source give for C[C@H](CO)N1C[C@H](C)[C@H](CN(C)C(=O)Cc2ccncc2)Oc2cc(C#CC3CCCCC3)ccc2S1(=O)=O here?
The cytotoxicity call was “inactive”.

And the cytotoxicity call (HepG2)?
Its cytotoxicity call is “inactive”.

What about the growth inhibition call (S. aureus RN4220) of the same molecule?
Its growth inhibition call is “inactive”.

How did the cytotoxicity call (HSkMC) turn out when C[C@H](CO)N1C[C@H](C)[C@H](CN(C)Cc2ccc(-c3ccccc3)cc2)Oc2ccc(NS(=O)(=O)c3ccccc3)cc2CC1=O was run?
Its cytotoxicity call is “inactive”.

What about the cytotoxicity call (HepG2) of the same molecule?
The cytotoxicity call was “active”.

What about the growth inhibition call (S. aureus RN4220) of the same molecule?
The growth inhibition call was “inactive”.

Which results are given for OCC(CO)N[C@H]1C[C@](O)(CO)[C@@H](O)[C@H](O)[C@H]1O?
cytotoxicity call (HSkMC): inactive; cytotoxicity call (HepG2): inactive; growth inhibition call (S. aureus RN4220): inactive

With COc1ccc2c3c(n(c2c1)C)[C@H](CO)N(C[C@]13CCN(CC1)S(=O)(=O)c1cn(cn1)C)C(=O)Nc1ccc(cc1)F as the molecule, how does the cytotoxicity call (HSkMC) read?
The cytotoxicity call was “inactive”.

And the cytotoxicity call (HepG2)?
The cytotoxicity call was “inactive”.

What about the growth inhibition call (S. aureus RN4220) of the same molecule?
The growth inhibition call was “inactive”.

With CO/N=[N+](\[O-])N1CCCC1 as the molecule, how does the cytotoxicity call (HSkMC) read?
The cytotoxicity call was “inactive”.

What about the cytotoxicity call (HepG2) of the same molecule?
The cytotoxicity call was “inactive”.

What about the growth inhibition call (S. aureus RN4220) of the same molecule?
The growth inhibition call was “inactive”.

Which cytotoxicity call (HSkMC) does the source give for C[C@@H]1CN([C@H](C)CO)C(=O)CCCn2cc(nn2)CO[C@@H]1CN(C)S(=O)(=O)c1ccc(Oc2ccccc2)cc1 here?
Its cytotoxicity call is “inactive”.

And the cytotoxicity call (HepG2)?
The cytotoxicity call was “inactive”.

What about the growth inhibition call (S. aureus RN4220) of the same molecule?
Its growth inhibition call is “inactive”.

What does the source list for c1ccc(-c2[nH]nc3ccccc23)cc1?
cytotoxicity call (HSkMC): inactive; cytotoxicity call (HepG2): inactive; growth inhibition call (S. aureus RN4220): inactive

What does the source list for COc1ccc(S(=O)(=O)Nc2ccc3c(c2)CC(=O)N([C@H](C)CO)C[C@@H](C)[C@@H](CN(C)S(=O)(=O)c2cccs2)O3)cc1?
cytotoxicity call (HSkMC): inactive; cytotoxicity call (HepG2): inactive; growth inhibition call (S. aureus RN4220): inactive

How did the cytotoxicity call (HSkMC) turn out when C[C@H]1CN([C@@H](C)CO)C(=O)c2cccc(NC(=O)Nc3ccc4c(c3)OCO4)c2O[C@H]1CN(C)S(=O)(=O)c1cn(C)cn1 was run?
The cytotoxicity call was “inactive”.

And the cytotoxicity call (HepG2)?
The cytotoxicity call was “inactive”.

What about the growth inhibition call (S. aureus RN4220) of the same molecule?
The growth inhibition call was “inactive”.
